# From the RNAGym collection of RNA variant scans (doi:10.7554/elife.90254)
# The source gives no read counts; variants with many changes may rest on few reads.
# B1: OR4K15 (parent)
# chain: GUUAACGGUCAUAGGCCAUGGAAACUAGGAGCACCAUUUCGCUGCCAGUGAAGAAAUGAACAAAGAAAAUCUGGGCCAGGCAGGCAUCAAAAGAAAUAGUCUUGCGCUCAACCAGAAAGUCUGUAAUCAUUUUAAGGGUA
# Variants of: B1
# Assay: self-cleavage, relative activity (ratio to wild type); higher = more cleavage; in vitro, sequencing; the parent is a self-cleaving ribozyme
row,Variant,self-cleavage
1,A22G A55G A59G U102C,1.38
2,U19C A69G A78U A117G,0.14
3,U19C U108C A116U,0.01
4,A22G A24G U38C U57A A59G A69G A86G C105G,0.08
5,A22G A54C A94U A96G,1.77
6,G21A A22G A91G U102C A114G A140G,0.32
7,A22G A30U U39C,0.88
8,A22G A59G U72C A91G A114G A118G,1.19
9,A22G A111G U120C,0.06
10,A22G A66G A129G A140G,1.21
11,A22G A91G A116G A117G,0.18
12,U19C A90G A126C,1.47
13,A22G U39C U49A A98G,0.97
14,A22G U38C A90G A98G A126C,0.11
15,U19C U39A U49C A52G A64G A129G,0.98
16,A22G A63G A67G A82G U122C,0.41
17,G20U G53A A62G A69U U127C,1.84
18,U19C U43C C107U,0.01
19,A22G A55G A96U U108C,0.02
20,A22G A60G A68C,0.29
21,U19C A94U A110G,0.24
22,A22G U38C A125G,0.44
23,A22G U37C A96C,0.73
24,A22G A55G U72A U97C U103C A126G,0.07

row,Variant,self-cleavage
1,U19G A24G A36G A47G A95G U102C C109U,0.46
2,A22G A52U A67U A140G,1.46
3,A22G A30U A116G A126G,0.37
4,A22G A27G A47U A110U U133C,1.1
5,A22G A23G A54U A86G U108C A126G,0
6,A22G C46U A54C A82C A96G A118G,0.11
7,A22G A64G A68G,1.26
8,A22G A55G A66G A96G,1.09
9,A22G A56G U100C,2.62
10,A22G A33G U97C,0.3
11,U19C U26C A69G A91C,1.43
12,A22G A91G A94G A98G U127C,0.33
13,A22G C32G A114G,0.49
14,A22G A62G A111G A135G,0.01
15,G20U U37C A91G,1.48
16,A22G A64G U131C,0.86
17,A22G A63G A135G A140U,2.08
18,U19C A91G A111G,0.02
19,U19G A22G U26C A63G A135G,1.37
20,A22G A23G A60G A111G,0.44
21,U19G U100C A111G,0.07
22,A22G A62G A86G,1.92
23,A22G U38C A66G U124C,0.62
24,A22G A54G A78G,0.21

row,Variant,self-cleavage
1,A22G A23G A63G A89U A91G G104A G123A,0.02
2,U19C G75C A129G,0.06
3,A22G A51G A63U A118G,0.19
4,A22G A52G G74A A92U,0.05
5,U19C U38C A86G,0.98
6,A22G A54G A134G,1.55
7,U19C U37C A78G,0.27
8,A22G A36G U38A U49A A56U,1.11
9,A22G U37C A52G U72C U102A A110C A114G,0.18
10,G21A A47G A55G A67G U100C,0.37
11,A22G G41U A94U,1.24
12,G20A A52G U102C,2.53
13,A22G U38C U120C,0.57
14,U19G A55U A64G,1.56
15,A22G U49A A98G,0.28
16,U19C A78U A82G U108C U130C,0
17,U19C C40A U103C,0.86
18,A22G A24G A52G A86G U100C G115U,0.67
19,G21U A86G A90G,0.84
20,A22G C45U A67G A117G,1.87
21,A22G A51U A55G A135G,0.62
22,U19G U39C U49A A69G A125U A126G,0
23,G21A A22U U38C A52G A111G,0.01
24,A22G U38C A56G A78U,0.12

row,Variant,self-cleavage
1,A22G A30G U97A A110G,0.12
2,U19C C25A A114G U120C A135U A140G,0.09
3,G21C A62U U108C A118G,0.01
4,U19C G29A U39G U139C,1.43
5,A22G A60G U72C A94G,0.13
6,A22G U37C A51C A86U,1.62
7,A22G A56G U57A A78C,0.35
8,A22G A52U A63G U87C,1.22
9,G20A A30C U43A,0.67
10,A22G A33G C85A A118G,0.65
11,A22G A51G A114U,0
12,U19C A62G U124A,1.58
13,G21A U38C U39C U57C A114U,0.06
14,A22G C85U A126G,0.14
15,U19C C109U A116G U120C,0.07
16,A22G A54U A60G A69C A96G A118G,0.04
17,U19C A78G A91G A95G U108A C113U,0.01
18,A22G A33G U39A A68G,1.17
19,U19C U37C U43C A89G U122G A134G,1.52
20,G20A A47G A51U U87C,0.45
21,A22G A33G U43C,0.87
22,A22G A52G U102C,1.65
23,G20A A95G U127C,1.58
24,G20A A68G A69G U70C U108C A110U,0.01

row,Variant,self-cleavage
1,A22G A24G A52G A56G G58C U102C,1.06
2,G20A A68G A94U U124A U130C,0.73
3,A22G A60G G119U,1.69
4,U19C U38C A55G A67G,1.09
5,U19C A64U A92G A118G,0.5
6,A22G C25U A33U,1.48
7,A22G C25U A33G,0.9
8,U19C G41A A111C U127C U131C,0
9,A22G A60G U72G A116G U120A,0.06
10,U19G A22U A51G A82G A96G,0.54
11,G21A A27G U37C,0.74
12,U19C U26C A114G,0.21
13,A22G A51G A54G A96G G115U,0.24
14,A22G A24G A90G U127A,0.29
15,U19C A64G A67G A82G U87C,0.23
16,A22G A24G A51C U57C U72A A116G,0.02
17,A22G A56G A86G U103A,0.96
18,G20A G21U A126C,0.88
19,A22G A64G A117G A126U,1.11
20,A22G A47G A89U A110G,0.16
21,U19C A62G U120C,0.51
22,G20A A24U U132C,1.43
23,U19C A86G G106U,0.04
24,A22G U39A A98U,0.97

row,Variant,self-cleavage
1,U19C A63G A95G,1.02
2,A22G U39C U70C A125G,0.42
3,A22G A55G A116G U120C A126G,0.22
4,A22G A24U A95G,1.51
5,A22G A51G A96G,1.73
6,A22G A23G U37C A95G,1.18
7,A22G A82U A126G,0.13
8,A22G A52G A67U U100C U130C,2.43
9,A22G A51G U72A U108G,0.02
10,U19C U37C A82U,0.27
11,U19C U57A A98U U122C,2.25
12,G20A A59G A90G U100C,1.94
13,G20A A54G A55G G80A,0.16
14,A22G A82G U97C,0.74
15,A22G U39C A56G A69G A140G,1.31
16,U19C A78C A140G,0.25
17,G20A U39C U127A,2.51
18,A22G U39C U72C C105A A118C,0.01
19,U19G A78U U120C U124C,0.14
20,A22G A63G A89G,0.71
21,A22G G58A A63G,1.23
22,A22G A64G A94G,1.89
23,A22G A60G A67G,0.9
24,U19C A89U A91G A117U U130C,0.49

row,Variant,self-cleavage
1,U19C A69U A92G U131C,1.6
2,G21U A36C A92U,1.34
3,A22G U38C U100A,1.52
4,A22G U38C A51G A62G A125G U127C,1.29
5,A22G A51G A86G A91G G115A G136A,0.04
6,A22G A27G U108C,0.05
7,A22G A90G A111G U122A,0
8,A22G A56G A63U A68G,1.78
9,A22G C77A A92G A134G,0.44
10,A22G A94G A116G,0.9
11,U19C U49C A89G,0.39
12,A22G A30G A96G U103C,0.14
13,G20A A47G A55G A86U A90G A95G U108C,0.01
14,U19C U49A U102A A125G A135U,0.12
15,G21U G80A A94G U102C,0.31
16,G20A A51G A82G A92G C105U,0.05
17,U19C U72C A96G,0.02
18,A22G A78U U130C U133C,0.26
19,A22G A59G U120G U130C,1.51
20,G21U A47G A64G A66U A95G G99A A118G,0.21
21,A22G U38C A117U U132C,0.79
22,G21A A62G A92G A95U A110G U120C U122C,0.06
23,A22G A47G U127A,1.78
